Data on two molecules can be found in US20210130494A1 (ALETA BIOTHERAPEUTICS, published 2021).

In experiment [1] the target is T1, CD20 on stable transfectant line 293-CD20 (UniProt P11836 1-297).
T1 construct: whole, on cells; also called CD20 expressing 293 cells
T1 sequence (looked up): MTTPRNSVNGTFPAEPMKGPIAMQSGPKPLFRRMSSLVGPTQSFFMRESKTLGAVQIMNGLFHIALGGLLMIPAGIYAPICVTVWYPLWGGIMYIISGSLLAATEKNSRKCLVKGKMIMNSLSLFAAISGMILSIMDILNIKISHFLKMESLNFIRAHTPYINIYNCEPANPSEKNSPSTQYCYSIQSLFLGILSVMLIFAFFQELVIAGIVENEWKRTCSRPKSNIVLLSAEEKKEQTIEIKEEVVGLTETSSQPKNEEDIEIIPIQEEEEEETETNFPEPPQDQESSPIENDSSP
Briefly: flow cytometry, 293-CD20 cells, anti-huIgG-FITC.

The target of experiment [2] is T2, EGFR on cells (A431 cells; 293T cells transiently transfected with EGFR cDNA) (UniProt P00533).
T2 construct: whole, on cells; also called EGFR-positive cell
Nature of the experiment: flow cytometry, A431 cells, Trastuzumab-PE.

B1: CD19-D1+2-Leu16 scFv (VL/VH)-huIgGFc (construct #84) (Fc fusion)
chain: PEEPLVVKVEEGDNAVLQCLKGTSDGPTQQLTWSRESPLKPFLKLSLGLPGLGIHMRPLAIWLFIFNVSQQMGGFYLCQPGPPSEKAWQPGWTVNVEGSGELFRWNVSDLGGLGCGLKNRSSEGPSSPSGKLMSPKLYVWAKDRPEIWEGEPPCLPPRDSLNQSLSQDLTMAPGSTLWLSCGVPPDSVSRGPLSWTHVHPKGPKSLLSLELKDDRPARDMWVMETGLLLPRATAQDAGKYYCHRGNLTMSFHLEITARPGGGGSGGGGSGGGGSGGGGSDIELTQSPTILSASPGEKVTMTCRASSSVNYMDWYQKKPGSSPKPWIYATSNLASGVPARFSGSGSGTSYSLTISRVEAEDAATYYCQQWSFNPPTFGGGTKLEIKRGGGGSGGGGSGGGGSMAQVKLQESGAELVKPGASVKMSCKASGYTFTSYNMHWVKQTPGQGLEWIGAIYPGNGDTSYNQKFKGKATLTADKSSSTAYMQLSSLTSEDSADYYCARSNYYGSSYWFFDVWGQGTTVTVSSAAAGDPA[letters of human IgG1 Fc with C220P (EU numbers) left out]
B1: the binding result in experiment [1] was “no binding (tested: 200 µl)”.

B2: Her2-D4-Panitumumab scFv (VH/VL) (construct #58) (other)
chain: NRPEDECVGEGLACHQLCARGHCWGPGPTQCVNCSQFLRGQECVEECRVLQGLPREYVNARHCLPCHPECQPQNGSVTCFGPEADQCVACAHYKDPPFCVARCPSGVKPDLSY[letters of about 40 residues left out]GGGGSGGGGSGGGGSGGGGSQVQLQESGPGDVKPSETLSLTCTVSGGSVSSGDYYWTWIRQSPGKGLEWIGHIYYSGNTNYNPSLKSRLTISIDTSKTTFSLQLSSVTGEDTAIYYCVRDRVTGAFDIWGQGTTVTVSSASTGGGGSGGGGSGGGGSGGGGSDIQMTQSPSSLEASVGDRVTITCQASQDISNYLNWYQQKPGKSPKLLIYDASNLETGVPDRFSGSGSGTDFTFTISSLQAEDEGTYFCQHFDHLPLAFGGGTKLEIKRTHHHHHH
notes: C-terminal His tag; also called Her2 extracellular D4-Panitumumab scFv VH-VL-His; Her2-anti-EGFR scFv fusion protein
In the case of B2, the binding result in experiment [2] is “binds”.
